In publication PMC4336329 (PLoS ONE, 2015):
About 14,000 (4.5%) of roughly 310,000 compounds showed an effect of 50% or more. The effect is printed as a negative number. Some of the results follow.

target: human ether-à-go-go-related gene (hERG) potassium channel (human, UniProt Q12809); assay: primary screen, population patch clamp on CHO cells stably expressing hERG
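Further: peak tail current of the secondary pulse compared with the same well before compound.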

Chain of human ether-à-go-go-related gene (hERG) potassium channel (Q12809 whole entry, looked up): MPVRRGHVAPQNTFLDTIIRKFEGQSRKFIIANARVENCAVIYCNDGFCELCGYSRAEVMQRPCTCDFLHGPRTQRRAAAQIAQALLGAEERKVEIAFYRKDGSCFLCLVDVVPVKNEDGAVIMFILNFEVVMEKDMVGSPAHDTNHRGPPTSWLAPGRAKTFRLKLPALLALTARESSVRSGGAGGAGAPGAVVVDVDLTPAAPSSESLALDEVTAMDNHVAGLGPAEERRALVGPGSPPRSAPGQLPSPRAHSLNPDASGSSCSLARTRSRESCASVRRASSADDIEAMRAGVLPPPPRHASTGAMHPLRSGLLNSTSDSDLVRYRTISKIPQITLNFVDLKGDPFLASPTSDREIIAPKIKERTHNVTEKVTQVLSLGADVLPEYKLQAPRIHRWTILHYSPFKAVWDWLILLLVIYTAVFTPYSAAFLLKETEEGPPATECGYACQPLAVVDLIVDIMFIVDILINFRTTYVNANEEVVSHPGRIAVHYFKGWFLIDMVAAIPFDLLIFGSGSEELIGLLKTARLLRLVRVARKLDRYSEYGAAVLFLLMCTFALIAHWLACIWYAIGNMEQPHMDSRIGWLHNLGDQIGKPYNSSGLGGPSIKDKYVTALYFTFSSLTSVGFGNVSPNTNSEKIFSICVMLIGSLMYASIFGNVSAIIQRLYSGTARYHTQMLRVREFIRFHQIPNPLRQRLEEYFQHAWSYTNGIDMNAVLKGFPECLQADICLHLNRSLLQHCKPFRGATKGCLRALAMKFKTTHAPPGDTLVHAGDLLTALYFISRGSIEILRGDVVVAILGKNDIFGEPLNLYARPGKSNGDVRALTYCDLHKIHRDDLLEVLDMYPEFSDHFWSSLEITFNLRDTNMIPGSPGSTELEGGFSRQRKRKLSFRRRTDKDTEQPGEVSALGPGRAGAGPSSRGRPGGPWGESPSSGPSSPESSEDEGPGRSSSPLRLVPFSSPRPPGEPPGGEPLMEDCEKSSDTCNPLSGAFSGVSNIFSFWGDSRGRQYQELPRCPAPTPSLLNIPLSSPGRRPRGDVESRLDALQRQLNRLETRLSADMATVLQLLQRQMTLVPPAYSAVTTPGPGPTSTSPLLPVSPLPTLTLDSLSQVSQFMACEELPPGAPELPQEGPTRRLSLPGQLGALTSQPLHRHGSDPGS

Going from `CN1C(=O)Cc2cc(S(=O)(=O)Nc3ccc(Cl)cc3)ccc21` to `CC(=O)c1cccc(NS(=O)(=O)c2ccc(NC(=O)N3CCCCC3)cc2)c1`, the “hERG current change (%, negative = inhibition) at 10uM” value rises from 8.94% to 15.6%.

Compared with `COC(=O)[C@@H]1C[C@@]2(O)[C@H](O)[C@H](O)[C@H](O)C[C@H]2N1Cc1ccc(C)s1`, `COC(=O)[C@@H]1C[C@@]2(O)[C@@H](O)[C@@H](O)[C@@H](O)C[C@H]2N1CC(c1ccccc1)c1ccccc1` is lower in “hERG current change (%, negative = inhibition) at 10uM” value: 5.07% for the first, 2.36% for the second.

Compared with `CC1=CCC2C(=O)N(c3cccc(C(=O)NCc4ccccc4)c3)C(=O)C2C1` (stereo not drawn), `Cc1ccccc1C(=O)NNC(=O)CSc1nc2ccccc2c(=O)[nH]1` is higher in “hERG current change (%, negative = inhibition) at 10uM” value: 2.53% for the first, 10.5% for the second.

Going from `CCN(CC(=O)Nc1c(F)cccc1F)C(=O)COc1ccc2c(c1)CCC2` to `CCN(CC(=O)Nc1c(F)cccc1F)C(=O)c1ccc2c(c1)NC(=O)C(C)S2` (stereo not drawn), the “hERG current change (%, negative = inhibition) at 10uM” value falls from -2.81% to -7.33%.

Compared with `CS(=O)(=O)N(CC(=O)N1CCN(c2ccccc2)CC1)C1CCCCC1`, `O=C(CN1C(=O)NC2(CCCC2)C1=O)N1CCN(c2cccc(C(F)(F)F)c2)CC1` is lower in “hERG current change (%, negative = inhibition) at 10uM” value: 19.2% for the first, -24.5% for the second.

Compared with `O=C(Cc1cccc2ccccc12)NC(NC(=S)Nc1ccccc1Cl)C(Cl)(Cl)Cl` (stereo not drawn), `O=C(COc1ccccc1[N+](=O)[O-])NNC(=O)Nc1cccc2ccccc12` is higher in “hERG current change (%, negative = inhibition) at 10uM” value: 11.7% for the first, 14.9% for the second.

Going from `COC1=CC(=Cc2c(N)n3nc(CC(=O)N4CCOCC4)sc3nc2=O)C=C(OC)C1=O` to `Cn1c(=O)cc(SCC(=O)N2CCOCC2)c2ccc(Cl)cc21`, the “hERG current change (%, negative = inhibition) at 10uM” value falls from 12.6% to -11.6%.

Going from `O=C(N=C1c2ccccc2CN1c1cccc(Cl)c1)c1cccnc1` to `O=S(=O)(c1ccccc1)C1Cc2ccccc2C1Cl` (stereo not drawn), the “hERG current change (%, negative = inhibition) at 10uM” value rises from -8.9% to 18.3%.

Going from `O=C(NCCc1ccccc1)c1cc2ncc(Br)cn2n1` to `CCOC(=O)c1cnc(NCc2ccccc2)nc1C`, the “hERG current change (%, negative = inhibition) at 10uM” value rises from -21.6% to -8.74%.

Compared with `Cc1cccc(-n2c(-c3ccccc3)c[nH]c2=S)c1C`, `O=C(CNCc1ccc(F)cc1)Nc1ccccc1-c1ccccc1` is lower in “hERG current change (%, negative = inhibition) at 10uM” value: 14.6% for the first, -10.2% for the second.

First: O=C(OCC(=O)N1CCCc2ccccc21)c1cc(S(=O)(=O)N2CCOCC2)ccc1Cl
Second: COc1cccc(NC(=O)C(=O)NCCC2CCCCN2S(=O)(=O)c2ccccc2)c1 (stereo not drawn)
The “hERG current change (%, negative = inhibition) at 10uM” value of the first is lower: -5.97% for the first, 0.746% for the second.

First: Clc1ccc(-c2cnc3n2CCCCC3)cc1
Second: COc1ccc(Cl)cc1N(CC(=O)N1CCCC1)S(=O)(=O)c1ccc(C)cc1
The “hERG current change (%, negative = inhibition) at 10uM” value of the first is lower: -46.4% for the first, -8.27% for the second.

First: O=C(CSc1nc2ccccc2c(=O)n1Cc1ccccc1)NCc1ccco1
Second: O=C(CSc1nc2ccccc2n1Cc1ccccc1)N/N=C/c1ccccc1C(=O)O
The “hERG current change (%, negative = inhibition) at 10uM” value of the first is lower: -39.6% for the first, -0.979% for the second.

Going from `Cn1cc(CN2CCCCC2c2ccccn2)c(-c2ccc3c(c2)OCCO3)n1` (stereo not drawn) to `Cc1ccccc1N(CC(=O)NC1CCCC1)C(=O)CS(=O)CC(=O)Nc1ccc2c(c1)OCO2` (stereo not drawn), the “hERG current change (%, negative = inhibition) at 10uM” value falls from -7.65% to -8.74%.

Going from `Cc1ccc(-c2nonc2NC(=O)c2ccco2)cc1` to `COCCNC(=O)c1cnn2c(C(F)(F)F)cc(-c3ccc(C)cc3)nc12`, the “hERG current change (%, negative = inhibition) at 10uM” value falls from -6.58% to -24.1%.

First: NS(=O)(=O)c1ccc(CNC(=O)/C=C/c2cccc([N+](=O)[O-])c2)cc1
Second: CN(CC(=O)NCc1ccc(F)cc1)S(=O)(=O)c1ccc(Br)s1
The “hERG current change (%, negative = inhibition) at 10uM” value of the first is higher: -1.29% for the first, -8.46% for the second.

Going from `COc1ccc(C(=O)Nc2cccnc2)cc1` to `CCOc1cccc(NC(=O)/C(C#N)=C/c2cccnc2)c1`, the “hERG current change (%, negative = inhibition) at 10uM” value falls from 19% to -35.4%.

Compared with `Cc1ccc(N2C(=O)CC(NNc3nc4ccccc4s3)C2=O)cc1C` (stereo not drawn), `O=C(C1CC(=O)N(c2ccc(F)cc2)C1)N1CCC(c2nc3ccccc3[nH]2)CC1` (stereo not drawn) is lower in “hERG current change (%, negative = inhibition) at 10uM” value: 7.11% for the first, -63.8% for the second.

First: O=C(Nc1ccccc1Cl)OC1CN2CCC1CC2 (stereo not drawn)
Second: CC1CCN(C(=O)CSc2nc3c(cnn3-c3ccccc3)c(=O)[nH]2)CC1
The “hERG current change (%, negative = inhibition) at 10uM” value of the first is lower: -32.9% for the first, 3.08% for the second.

Compared with `C/C(=N\NC(=O)Cc1cccn1C)c1cccc2ccccc12`, `COc1ccc(CNC(=O)C/C(C)=N/NC(=O)c2ccccc2OC)cc1` is lower in “hERG current change (%, negative = inhibition) at 10uM” value: 9.28% for the first, -8.43% for the second.

Going from `CCOC(=O)C1=C(c2ccccc2)NC(N)=NC1c1ccc(OCc2ccc(Cl)cc2)c(OC)c1` (stereo not drawn) to `COc1ccc(C(=O)COC(=O)c2ccccc2C(=O)N(C)c2ccccc2)c(OC)c1`, the “hERG current change (%, negative = inhibition) at 10uM” value rises from -36.8% to -6.4%.

First: C(=N\Nc1ccccn1)/c1cccnc1
Second: C(=N\Nc1nc2ccccc2[nH]1)/c1cccc2nccnc12
The “hERG current change (%, negative = inhibition) at 10uM” value of the first is higher: 19.3% for the first, 11.9% for the second.

First: CCOc1ccc(N2C(=O)C(Cl)=C(Nc3ccccc3O)C2=O)cc1
Second: CCOc1ccc(N(CC(=O)NCc2ccc(Cl)cc2)S(=O)(=O)c2c(C)noc2C)cc1
The “hERG current change (%, negative = inhibition) at 10uM” value of the first is lower: -11% for the first, 12.1% for the second.

Compared with `CN(C)S(=O)(=O)c1ccc(Cl)c(NC(=O)COC(=O)[C@@H]2CCCN2C(=O)c2cccs2)c1`, `NS(=O)(=O)c1ccc(CCNC(=O)CSc2nc3ccsc3c(=O)n2CC(=O)O)cc1` is higher in “hERG current change (%, negative = inhibition) at 10uM” value: -8.22% for the first, 0.557% for the second.

Compared with `CCOc1ccc(-c2nc(C#N)c(NCC(C)C)o2)cc1`, `COc1ccc(CCNC2=CC(=O)CC(C)(C)C2)cc1` is lower in “hERG current change (%, negative = inhibition) at 10uM” value: 7.61% for the first, -21.2% for the second.

Going from `COc1ccccc1C(=O)NC(=O)COC(=O)c1cnc(C)cn1` to `Cc1ccccc1OCC(=O)NNC(=S)NC(=O)c1ccccc1[N+](=O)[O-]`, the “hERG current change (%, negative = inhibition) at 10uM” value rises from -0.563% to 1.05%.

Going from `COc1cc([N+](=O)[O-])ccc1NC(=O)/C=C/C(=O)O` to `COc1ccc(NC(=O)c2ccccc2C)c(OC)c1`, the “hERG current change (%, negative = inhibition) at 10uM” value falls from 5.95% to 2.9%.

Going from `CN(C)CCC(c1ccccc1)c1ccccn1.O=C(O)/C=C\C(=O)O` (stereo not drawn) to `COCCn1c(N)c(N(Cc2ccccc2)C(=O)CN2C(=O)NC(C)(c3ccccc3)C2=O)c(=O)[nH]c1=O` (stereo not drawn), the “hERG current change (%, negative = inhibition) at 10uM” value rises from -14.1% to 12.5%.

First: O=C(CCNC(=O)c1ccc([N+](=O)[O-])cc1)N/N=C/c1ccc(F)cc1
Second: O=C(NCCN1CCOCC1)c1ccc2c(c1)N(Cc1cccc(F)c1)C(=O)c1ccccc1S2
The “hERG current change (%, negative = inhibition) at 10uM” value of the first is lower: -20.5% for the first, -19% for the second.

Compared with `O=C1/C(=C/c2cccs2)SC(=S)N1CC(=O)N1CCCCC1CCO` (stereo not drawn), `COc1cc(/C=C2\SC(=S)N(CC(=O)NC3=NCCS3)C2=O)cc(OC)c1OC` is higher in “hERG current change (%, negative = inhibition) at 10uM” value: -3.22% for the first, 23.5% for the second.

Going from `COC(=O)C(C(=O)NCC1CCCO1)C1CCCCCC1` (stereo not drawn) to `CCOC(=O)c1c(NC(=S)NNS(=O)(=O)c2ccc(Br)cc2)sc2c1CCCCC2`, the “hERG current change (%, negative = inhibition) at 10uM” value rises from -9.18% to 20.1%.

Compared with `COCCNC(=O)c1cccc(OC2CCN(Cc3ccccc3OC(F)F)CC2)c1`, `C=CCC(NCc1ccco1)c1ccc(OC)cc1OC` (stereo not drawn) is lower in “hERG current change (%, negative = inhibition) at 10uM” value: 2.5% for the first, -0.0621% for the second.

Going from `CC(=O)Nc1cccc(N/C(N)=N/c2nc(C)cc(C)n2)c1` to `CCc1cccc(C)c1NC(=O)CSc1nnc(-c2ccco2)n1N`, the “hERG current change (%, negative = inhibition) at 10uM” value falls from 4.87% to -3.1%.

Compared with `COc1cccc(-c2nc(N)nc(SC)c2C#N)c1`, `CCCC(=O)n1nc(-c2ccccc2)nc1SC` is lower in “hERG current change (%, negative = inhibition) at 10uM” value: -2.11% for the first, -48.1% for the second.

First: CCc1nnc(SCC(=O)Nc2nc(C)c(C(=O)N(C)C)s2)n1CC
Second: CCOc1ccc(NC(=O)Cc2nnc(SCC(=O)N3CCOCC3)n2C)cc1
The “hERG current change (%, negative = inhibition) at 10uM” value of the first is lower: 4.26% for the first, 9.37% for the second.

Going from `Cc1cc(OCC(=O)N(C(C)C)C(C)C)ccc1Cl` to `Cc1ccc(C)c(C(=O)C(C)OC(=O)CN2C(=O)NC3(CC(C)CC(C)(C)C3)C2=O)c1` (stereo not drawn), the “hERG current change (%, negative = inhibition) at 10uM” value rises from -3.57% to 23.2%.

Compared with `CC1=C(C(=O)OC(C)C)C(c2ccc(N(C)C)cc2)C2=C(CC(C)(C)CC2=O)N1` (stereo not drawn), `Cc1cc(OCc2ccc([N+](=O)[O-])cc2)c2c3c(c(=O)oc2c1)CCCC3` is higher in “hERG current change (%, negative = inhibition) at 10uM” value: -6.8% for the first, 9.22% for the second.

First: CCS(=O)(=O)c1ccc(C(=O)NC)c(Cl)c1Cl
Second: COc1cc(C(=O)NCC(C)C)c([N+](=O)[O-])cc1OC
The “hERG current change (%, negative = inhibition) at 10uM” value of the first is lower: 3.88% for the first, 12.5% for the second.

Compared with `COc1ccc(CNc2ncnc3sccc23)cc1OC`, `COc1ccc(CCNc2nc(N3CCOCC3)nc(N3CCOCC3)n2)cc1OC` is lower in “hERG current change (%, negative = inhibition) at 10uM” value: 21.1% for the first, 3.45% for the second.

Compared with `CCCCCCCSc1nnc(-c2ccccc2N)c(=O)[nH]1`, `Clc1ncnc2scc(-c3ccccc3)c12` is lower in “hERG current change (%, negative = inhibition) at 10uM” value: 6.86% for the first, 1.01% for the second.

First: CN(C)/C=C/C(=O)c1ccc(N2CCN(c3ncc(C(F)(F)F)cc3Cl)CC2)cc1
Second: CCn1cc(/C=C/C(=O)c2ccc(O)cc2)c(C)n1
The “hERG current change (%, negative = inhibition) at 10uM” value of the first is lower: -6.08% for the first, 1.71% for the second.

First: O=C1CCCC(=O)C1=C1SCCS1
Second: CCOC(=O)Cn1c(=O)n(Cc2ccc(C)cc2)c(=O)c2cccnc21
The “hERG current change (%, negative = inhibition) at 10uM” value of the first is lower: -3.42% for the first, 2.71% for the second.

Compared with `Clc1ccc(-c2nn3cnnc3s2)c(Cl)c1`, `C=CCn1c(=N)n(CC(O)c2ccco2)c2ccccc21.Cl` (stereo not drawn) is lower in “hERG current change (%, negative = inhibition) at 10uM” value: -13.6% for the first, -23.1% for the second.

In the case of `O=C(CNC(=S)N(CCCN1CCOCC1)Cc1cccs1)NCCN1CCOCC1`, the “hERG current change (%, negative = inhibition) at 10uM” value is reported as 9.17%.
